Data reported in article PMC12820563, “FoxP3 forms a head-to-head dimer in vivo and stabilizes its multimerization on adjacent microsatellites”.
The other results are listed elsewhere or left out.

These sequences were tested against T1, MBP-FoxP1dN (Mus musculus, UniProt P58462 326-579) (assay: PD-seq (MBP pull-down with sequencing); 20 mM Tris-HCl pH 7.5, 100 mM NaCl, 1.5 mM MgCl2, 0.4 uM protein, 0.1 uM dsDNA library, 30 min, room temperature, amylose pull-down; high values mean tight binding). Settings: protein: recombinant; tags: His6-MBP; chain copies: 2; dsDNA, one strand shown.
T1 sequence: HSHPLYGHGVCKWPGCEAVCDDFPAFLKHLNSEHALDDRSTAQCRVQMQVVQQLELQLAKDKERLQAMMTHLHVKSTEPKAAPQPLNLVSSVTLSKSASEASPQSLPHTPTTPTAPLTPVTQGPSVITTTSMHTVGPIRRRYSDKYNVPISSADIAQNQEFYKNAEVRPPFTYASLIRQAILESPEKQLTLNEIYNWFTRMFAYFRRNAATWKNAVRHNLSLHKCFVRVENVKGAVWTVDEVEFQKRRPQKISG
Method in brief: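 His6-MBP-tagged mouse FoxP3 or FoxP1 fragment lacking the N-terminus, expressed in E. coli, was mixed at 0.4 µM with 0.1 µM Klenow-filled double-stranded degenerate DNA library. Incubation was 30 min at room temperature in Tris pH 7.5 buffer with NaCl and MgCl2. Complexes were caught on amylose resin and washed three times; DNA was released with proteinase K, PCR-barcoded and Illumina-sequenced. Binding is reads-per-million enrichment, pull-down over input, with replicates pooled.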
With “GATGATTGTTCTCCCAGCTGATGAATTCGATGCATCGAGTAAACAAATTTTCCTAATCTTTCTGTTCAAGCGCCATCTAC” the binding signal was 1.23 RPM ratio (pull-down/input). In the case of “GATGATTGTTCTCCCAGCTGATGAATTTCAACAGTCGAGTAAACAAATTTTCCTAATCTTTCTGTTCAAGCGCCATCTAC”, the binding signal is reported as 0.922 RPM ratio (pull-down/input). With “GATGATTGTTCTCCCAGCTGATGAATTCACTTCGTCGAGTAAACAAATTTTCCTAATCTTTCTGTTCAAGCGCCATCTAC” the binding signal was 0.914 RPM ratio (pull-down/input). With “GATGATTGTTCTCCCAGCTGATGAATTGCGTGTCTCGAGTAAACAAATTTTCCTAATCTTTCTGTTCAAGCGCCATCTAC” the binding signal was 0.98 RPM ratio (pull-down/input). “GATGATTGTTCTCCCAGCTGATGAATTCAATAAGTCGAGTAAACAAATTTTCCTAATCTTTCTGTTCAAGCGCCATCTAC” was tested, and the binding signal was 0.939 RPM ratio (pull-down/input). In the case of “GATGATTGTTCTCCCAGCTGATGAATTCGGCCTTTCGAGTAAACAAATTTTCCTAATCTTTCTGTTCAAGCGCCATCTAC”, the binding signal is reported as 0.797 RPM ratio (pull-down/input). “GATGATTGTTCTCCCAGCTGATGAATTATCAGGGTCGAGTAAACAAATTTTCCTAATCTTTCTGTTCAAGCGCCATCTAC” was tested, and the binding signal was 0.82 RPM ratio (pull-down/input). For “GATGATTGTTCTCCCAGCTGATGAATTTGGCTGTTCGAGTAAACAAATTTTCCTAATCTTTCTGTTCAAGCGCCATCTAC”, the binding signal was 0.894 RPM ratio (pull-down/input). “GATGATTGTTCTCCCAGCTGATGAATTAAATTCCTCGAGTAAACAAATTTTCCTAATCTTTCTGTTCAAGCGCCATCTAC” was tested, and the binding signal was 0.884 RPM ratio (pull-down/input). With “GATGATTGTTCTCCCAGCTGATGAATTATGAACGTCGAGTAAACAAATTTTCCTAATCTTTCTGTTCAAGCGCCATCTAC” the binding signal was 1.02 RPM ratio (pull-down/input). In the case of “GATGATTGTTCTCCCAGCTGATGAATTCCGCCGCTCGAGTAAACAAATTTTCCTAATCTTTCTGTTCAAGCGCCATCTAC”, the binding signal is reported as 0.747 RPM ratio (pull-down/input). With “GATGATTGTTCTCCCAGCTGATGAATTTTACCACTCGAGTAAACAAATTTTCCTAATCTTTCTGTTCAAGCGCCATCTAC” the binding signal was 0.85 RPM ratio (pull-down/input). “GATGATTGTTCTCCCAGCTGATGAATTGTTGAAGTCGAGTAAACAAATTTTCCTAATCTTTCTGTTCAAGCGCCATCTAC” was tested, and the binding signal was 1.06 RPM ratio (pull-down/input). For “GATGATTGTTCTCCCAGCTGATGAATTCGCACTTTCGAGTAAACAAATTTTCCTAATCTTTCTGTTCAAGCGCCATCTAC”, the binding signal was 0.852 RPM ratio (pull-down/input). For “GATGATTGTTCTCCCAGCTGATGAATTTTCTGTCTCGAGTAAACAAATTTTCCTAATCTTTCTGTTCAAGCGCCATCTAC”, the binding signal was 0.87 RPM ratio (pull-down/input). With “GATGATTGTTCTCCCAGCTGATGAATTAACGAACTCGAGTAAACAAATTTTCCTAATCTTTCTGTTCAAGCGCCATCTAC” the binding signal was 0.842 RPM ratio (pull-down/input). In the case of “GATGATTGTTCTCCCAGCTGATGAATTGCGGTAGTCGAGTAAACAAATTTTCCTAATCTTTCTGTTCAAGCGCCATCTAC”, the binding signal is reported as 1.05 RPM ratio (pull-down/input). In the case of “GATGATTGTTCTCCCAGCTGATGAATTAGTCACTTCGAGTAAACAAATTTTCCTAATCTTTCTGTTCAAGCGCCATCTAC”, the binding signal is reported as 0.984 RPM ratio (pull-down/input). For “GATGATTGTTCTCCCAGCTGATGAATTTAAGTGATCGAGTAAACAAATTTTCCTAATCTTTCTGTTCAAGCGCCATCTAC”, the binding signal was 0.94 RPM ratio (pull-down/input). For “GATGATTGTTCTCCCAGCTGATGAATTCCACGTATCGAGTAAACAAATTTTCCTAATCTTTCTGTTCAAGCGCCATCTAC”, the binding signal was 0.905 RPM ratio (pull-down/input). In the case of “GATGATTGTTCTCCCAGCTGATGAATTAGAAGGATCGAGTAAACAAATTTTCCTAATCTTTCTGTTCAAGCGCCATCTAC”, the binding signal is reported as 0.893 RPM ratio (pull-down/input). “GATGATTGTTCTCCCAGCTGATGAATTCTGACAGTCGAGTAAACAAATTTTCCTAATCTTTCTGTTCAAGCGCCATCTAC” was tested, and the binding signal was 0.865 RPM ratio (pull-down/input). With “GATGATTGTTCTCCCAGCTGATGAATTCCATATTTCGAGTAAACAAATTTTCCTAATCTTTCTGTTCAAGCGCCATCTAC” the binding signal was 0.948 RPM ratio (pull-down/input). “GATGATTGTTCTCCCAGCTGATGAATTTTTATTATCGAGTAAACAAATTTTCCTAATCTTTCTGTTCAAGCGCCATCTAC” was tested, and the binding signal was 2.02 RPM ratio (pull-down/input). With “GATGATTGTTCTCCCAGCTGATGAATTTTGCCGGTCGAGTAAACAAATTTTCCTAATCTTTCTGTTCAAGCGCCATCTAC” the binding signal was 0.746 RPM ratio (pull-down/input). In the case of “GATGATTGTTCTCCCAGCTGATGAATTGACCCAATCGAGTAAACAAATTTTCCTAATCTTTCTGTTCAAGCGCCATCTAC”, the binding signal is reported as 1.06 RPM ratio (pull-down/input). For “GATGATTGTTCTCCCAGCTGATGAATTTAGAGCCTCGAGTAAACAAATTTTCCTAATCTTTCTGTTCAAGCGCCATCTAC”, the binding signal was 0.87 RPM ratio (pull-down/input). In the case of “GATGATTGTTCTCCCAGCTGATGAATTTCAAGCCTCGAGTAAACAAATTTTCCTAATCTTTCTGTTCAAGCGCCATCTAC”, the binding signal is reported as 0.827 RPM ratio (pull-down/input). With “GATGATTGTTCTCCCAGCTGATGAATTCGGGAACTCGAGTAAACAAATTTTCCTAATCTTTCTGTTCAAGCGCCATCTAC” the binding signal was 0.774 RPM ratio (pull-down/input). For “GATGATTGTTCTCCCAGCTGATGAATTCGGTCAGTCGAGTAAACAAATTTTCCTAATCTTTCTGTTCAAGCGCCATCTAC”, the binding signal was 0.816 RPM ratio (pull-down/input). With “GATGATTGTTCTCCCAGCTGATGAATTTCGATACTCGAGTAAACAAATTTTCCTAATCTTTCTGTTCAAGCGCCATCTAC” the binding signal was 0.916 RPM ratio (pull-down/input). In the case of “GATGATTGTTCTCCCAGCTGATGAATTCCCACCGTCGAGTAAACAAATTTTCCTAATCTTTCTGTTCAAGCGCCATCTAC”, the binding signal is reported as 0.829 RPM ratio (pull-down/input). For “GATGATTGTTCTCCCAGCTGATGAATTAAAAAACTCGAGTAAACAAATTTTCCTAATCTTTCTGTTCAAGCGCCATCTAC”, the binding signal was 0.953 RPM ratio (pull-down/input). In the case of “GATGATTGTTCTCCCAGCTGATGAATTGTCTTAATCGAGTAAACAAATTTTCCTAATCTTTCTGTTCAAGCGCCATCTAC”, the binding signal is reported as 1.13 RPM ratio (pull-down/input). With “GATGATTGTTCTCCCAGCTGATGAATTGCACTGATCGAGTAAACAAATTTTCCTAATCTTTCTGTTCAAGCGCCATCTAC” the binding signal was 1.08 RPM ratio (pull-down/input). “GATGATTGTTCTCCCAGCTGATGAATTTTCACAATCGAGTAAACAAATTTTCCTAATCTTTCTGTTCAAGCGCCATCTAC” was tested, and the binding signal was 1.29 RPM ratio (pull-down/input). In the case of “GATGATTGTTCTCCCAGCTGATGAATTGAAGCTTTCGAGTAAACAAATTTTCCTAATCTTTCTGTTCAAGCGCCATCTAC”, the binding signal is reported as 0.876 RPM ratio (pull-down/input). With “GATGATTGTTCTCCCAGCTGATGAATTGTGTGCGTCGAGTAAACAAATTTTCCTAATCTTTCTGTTCAAGCGCCATCTAC” the binding signal was 1.22 RPM ratio (pull-down/input). “GATGATTGTTCTCCCAGCTGATGAATTTTCGGGCTCGAGTAAACAAATTTTCCTAATCTTTCTGTTCAAGCGCCATCTAC” was tested, and the binding signal was 0.781 RPM ratio (pull-down/input). For “GATGATTGTTCTCCCAGCTGATGAATTGAAGAACTCGAGTAAACAAATTTTCCTAATCTTTCTGTTCAAGCGCCATCTAC”, the binding signal was 0.822 RPM ratio (pull-down/input).
